Experimental data from the RNAGym collection of RNA variant scans (doi:10.7554/elife.90254).
The source gives no read counts; variants with many changes may rest on few reads.

B1: LINE1-mini (parent)
chain: GGCAGAGCUCAACACAGCGUGGCAAAGUGGCUGUGGCUAGACUGCC

Variants of: B1
Experiment: self-cleavage, relative activity (ratio to wild type); higher = more cleavage; in vitro, sequencing; the parent is a self-cleaving ribozyme
With GGCAGAGCUCAACACUGCGUGCCAAAGUGGCUAUGGCUAGACUGCG [A16U G22C G33A C46G] the self-cleavage was 0.08.
Variant GUCAGAGCUCCACACAGCGUGGCUAAGUGGUUGUGGCUAGACUGCC [G2U A11C A24U C31U] has a self-cleavage of 0.03.
Variant GGCAGAGCUCAACACAGUGUGGCUGAGUGGCUGUGGCUAGACUGCC [C18U A24U A25G] has a self-cleavage of 0.19.
GGCAAAGCUCAAUACAGCGUUGCAAAGUGGCUGUGGCUAGACUGCC [G5A C13U G21U] gave a self-cleavage of 0.65.
In the case of GGCAGAGCUCAACACAGCGUGGCAAAGUGGGUGUGGGGAGACUGCA [C31G C37G U38G C46A], the self-cleavage is reported as 0.06.
GGCAGAGCUCGAAACAGCGUGGCAAAGUAACUGUGGCUAGACUGCC [A11G C13A G29A G30A] gave a self-cleavage of 0.01.
Variant GGCAGAGCGCAACACAGCGUGGCAAAGUGGGUGUGUCUAGACUGCC [U9G C31G G36U] has a self-cleavage of 0.03.
GUCAUAGCUCAACACAGCGUGGCAAAGUGGCUGUGGCUACACUGCC [G2U G5U G40C] gave a self-cleavage of 0.04.
GGCAGAGCUCAACACAACGUGGCAAAGUCUCUGUGGCUAGACUGCG [G17A G29C G30U C46G] showed a self-cleavage of 0.08.
With GGAAGAGCUCAAUACAGACUGGCAAAGUGGCAGCGGCUAGACUGCC [C3A C13U C18A G19C U32A U34C] the self-cleavage was 0.06.
GGUAGAGCUUAAUACAGCGUGGCAAAGUGGCUGAGGCUAGCCUGCC [C3U C10U C13U U34A A41C] showed a self-cleavage of 0.02.
For GACAGCGCUCAAAACAGUGUGGCAAAGUGGCUGUGGCUAGCCUGCC [G2A A6C C13A C18U A41C], the self-cleavage was 0.16.
GGCUGAACUCAACACAGCGUGGCAAAGUGGAUGUGGCUAGACUGCC [A4U G7A C31A] showed a self-cleavage of 0.16.
GGCAGAGCUCAACACUACAUGGCAAAGUGGCUGUGACUAGACUGCC [A16U G17A G19A G36A] showed a self-cleavage of 0.18.
GGCAGAGCUCAACACUGCGUGGCACAGUGACUGUGGCUGGACUGCC [A16U A25C G30A A39G] showed a self-cleavage of 0.01.
For GGCAGAGCUCAACACUGAGUGGCAAAGUGGCUCUGGCUAGACUGCC [A16U C18A G33C], the self-cleavage was 0.02.
Work on GGUUAACCUCAACACAGCGUGGCAAAUUGGCUUUGGCUAGACUGCC [C3U A4U G5A G7C G27U G33U] yielded a self-cleavage of 0.06.
GGCACAGCUCAACACCACGUGGCAAAGUGGCUGUCGCUAGACUGCC [G5C A16C G17A G35C] showed a self-cleavage of 0.02.
Variant GGCACAGCUCAACCCAGCGUGGCAAAGUGGCUGUGGCUAGACUUGC [G5C A14C G44U C45G] has a self-cleavage of 0.03.
GGCAGAGCUCAACACAGCGUGGCAAAGUAACUGUGGCUAUACUGCC [G29A G30A G40U] showed a self-cleavage of 0.19.
GGCAGAGCUCAACACAGCGUGGCAAAGUUCCUGUGGCUAGACUGCG [G29U G30C C46G] gave a self-cleavage of 0.07.
For GGCAUAGCUCAACACAGCGUGGCAAAGUGACUGUGGCUAGACUGUC [G5U G30A C45U], the self-cleavage was 0.05.
In the case of GGCAGAGCUCAACACAGUGUGGCGAGGUGGCUGUGGCUAGACUGCC [C18U A24G A26G], the self-cleavage is reported as 0.2.
With GUCAGAGCUUAACACAGCGUGGCGAAGUGGCUGUGGUUAGAGUGCC [G2U C10U A24G C37U C42G] the self-cleavage was 0.02.
With GGCAGAGAUCAACACAGCUUGGCAAAGCUGCUGUGGCUAGACUGCC [C8A G19U U28C G29U] the self-cleavage was 0.05.
GGAAGAGCUCAUCACAGCGUGGCCAAGUGGCUCUGGCUAGACUGCC [C3A A12U A24C G33C] showed a self-cleavage of 0.09.
With GGCAGAGCUCAACCCAUCGUGGCACAGUGGCUGUGGCUAGACUGCC [A14C G17U A25C] the self-cleavage was 0.04.
Variant GGCUGAGAUCAAUACAGCGUGGCAAAGUGGCUGUGGCUAAACUGCC [A4U C8A C13U G40A] has a self-cleavage of 0.06.
In the case of GGGAGAGCUCAACACACCGUGGCAAAAUGGCUGUGGCUAGACUGCC [C3G G17C G27A], the self-cleavage is reported as 0.05.
GUCAGAGCUCAACACAGCGUGGCAAAGCGGCUGUGGCUACACUGCC [G2U U28C G40C] gave a self-cleavage of 0.02.
GGCAGAGCUCAACACAGCGUGACAAAGUGGCAGUGGCUGGACUGCC [G22A U32A A39G] gave a self-cleavage of 0.02.
GGCAGAGCUCAACACAGCGUGGCGAAGUGGCUGUGACUAGACUGGC [A24G G36A C45G] showed a self-cleavage of 0.
GGCCGAGCUCAACGCAGCGUGGAAAAGUGGGUAUUGCUAGACUGCA [A4C A14G C23A C31G G33A G35U C46A] showed a self-cleavage of 0.25.
GGCAAAGCUCAACACAGGGUGGCCAAGUGCCUGUGACUAGACUGCC [G5A C18G A24C G30C G36A] showed a self-cleavage of 0.06.
In the case of GGCAGAGCUCAACACAGCGUGGCAAAGUGGCUGAGGCUAUACUGUC [U34A G40U C45U], the self-cleavage is reported as 0.13.
For GGCAGAGCUAAACACAGUGUGACAAAGUGGCUGUGGCUAGACUGCC [C10A C18U G22A], the self-cleavage was 0.08.
Work on GGCCGAGCCCAACACAUCGUGGCAAAGUGGCUGUGGCUAGACUGCU [A4C U9C G17U C46U] yielded a self-cleavage of 0.
In the case of GGCAGAGCUCAACACUGCGUGGCAACCUGGCUGUGGCUAGACUGCU [A16U A26C G27C C46U], the self-cleavage is reported as 0.04.
GGCAGAGCUCAUCACGGCGUGGCAAAGUGGCUCUGGCUAUACUGCC [A12U A16G G33C G40U] gave a self-cleavage of 0.01.
For AGCAAAGCUCAACACAGUGUGGCAAAGUGGCUGUGGCUAGACUGCC [G1A G5A C18U], the self-cleavage was 0.28.
In the case of GGCAGAGCUCAACACAGCGUGGCAAAGUGGCUGUGUCUAGUCUUCC [G36U A41U G44U], the self-cleavage is reported as 0.02.
In the case of GGCAGAGCACAACACAGCGUGGCAAAGUGGUUGUGGCUAGACCGCC [U9A C31U U43C], the self-cleavage is reported as 0.04.
Work on GGCAGAGAUGAACACAACGUGGCUAAGUGGCUGUGGCUAGACUGCC [C8A C10G G17A A24U] yielded a self-cleavage of 0.02.
With GGCAGAGCCCAACACAGCGUGGAAUAGUUGCUGUGGCUAGACCGCC [U9C C23A A25U G29U U43C] the self-cleavage was 0.
For GGCAGAGCUCAUCACCUCGUGGCAAAGUGGCUGUGGCUAGACUGCC [A12U A16C G17U], the self-cleavage was 0.03.
Variant GGCAGAGCUCAACACACCGUGGCAAAGUGGCUGUGGCAAGACUGCU [G17C U38A C46U] has a self-cleavage of 0.04.
GGCAGAGCUGAAAACAGCGUGGCAAAGUGGCUGGGGCUAGACUGCC [C10G C13A U34G] gave a self-cleavage of 0.04.
GGCAGAGCUGAACACAGCGUGGCAAAGUGGUUGUGGCUAGACUGCA [C10G C31U C46A] showed a self-cleavage of 0.02.
Variant GGCAGAGCUCAUCACGGCGUGGCAAAGUGGCUGUGGCACGAGUGCC [A12U A16G U38A A39C C42G] has a self-cleavage of 0.02.
With GGCAGAGCUCAACACAGCGUGGCAAAGUGGAUGUGGCAAGUGUGCC [C31A U38A A41U C42G] the self-cleavage was 0.02.
GGCAGAGUUCAACACAGCGUUACAAAGUGGCUGUGGCUAGACUGCC [C8U G21U G22A] gave a self-cleavage of 0.05.
GUCAGAGUUCAACACAGCGUGGCAAAGUGACUGUGGCUAGACUGCC [G2U C8U G30A] gave a self-cleavage of 0.04.
Work on GGCAGGGCUCAACACUGCGUGGCACUCUGGCUGUGGAUAGACUGCC [A6G A16U A25C A26U G27C C37A] yielded a self-cleavage of 0.04.
In the case of GGCAGAGCUCAACAUUGCGUGGCAAAAUGGCUGUGGCUAGACUGCC [C15U A16U G27A], the self-cleavage is reported as 0.18.
Work on GGCAGAGCUUAACACAGAGUGUCCAAGUGGCUAUGGCUCGACUGCC [C10U C18A G22U A24C G33A A39C] yielded a self-cleavage of 0.01.
Work on GGCAGUACUCAACACAGCGUGGCAAAGUAGCUGUGGCUAGACUGCC [A6U G7A G29A] yielded a self-cleavage of 0.08.
